Experimental data taken from the supplement of paper PMC4166925.
± gives the standard deviation of the averaged measurements. The full ranking holds about 33,000 sequences; the median of “E-score (dimensionless, -0.5 to 0.5)” is about -0.049, and the highest 2% start at about 0.37. The list shows a part of the results.

Each sequence was assayed on T1, PmTbr T-box DNA-binding domain (GST fusion) (assay: PBM E-score of 8-mer (E-score (dimensionless, -0.5 to 0.5)); Tbr is Tbrain of the sea star Patiria miniata (Pm) or the sea urchin Strongylocentrotus purpuratus (Sp); higher = stronger binding preference; most listed sequences are background and not binding sites). Conditions: the construct has about 5 more residues each side.
T1 sequence: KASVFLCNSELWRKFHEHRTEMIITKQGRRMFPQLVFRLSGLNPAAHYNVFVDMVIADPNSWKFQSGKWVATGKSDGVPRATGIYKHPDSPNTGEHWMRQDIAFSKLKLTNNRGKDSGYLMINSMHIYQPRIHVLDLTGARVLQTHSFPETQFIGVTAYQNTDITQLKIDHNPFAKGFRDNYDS
How it was run: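 GST-fused Tbr T-box DNA-binding domains (the whole T-box plus about five flanking residues) were expressed in BL21 E. coli at 20 °C and purified by glutathione affinity chromatography. Universal Agilent oligonucleotide arrays were made double-stranded by primer extension, incubated with 200 nM protein in PBS (pH 7.5), then scanned and quantified. Every ungapped 8-mer was scored from probe intensities. The Universal PBM Analysis Suite gave each word an enrichment E-score, averaged over duplicate arrays.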

| Sequence | PBM E-score of 8-mer |
| --- | --- |
| CATTAATC | -0.175 ± 0.012 |
| GGAGGTCA | 0.0158 ± 0.0067 |
| AGGACCAT | -0.191 ± 0.059 |
| CGAGCTAC | -0.0731 ± 0.092 |
| AGGTTGCG | 0.203 ± 0.015 |
| TACGGTCA | -0.149 ± 0.0075 |
| ACCGTTGC | 0.0163 ± 0.055 |
| AAATAGGC | -0.0466 ± 0.063 |
| ATGTCAAG | -0.0802 ± 0.059 |
| AGTATGGG | -0.153 ± 0.012 |
| CTAATAGC | 0.0155 ± 0.017 |
| CCCAAATA | -0.217 ± 0.024 |
| TAAATGGA | -0.183 ± 0.024 |
| GAAGACCC | -0.094 ± 0.0033 |
| AAGTGCGC | 0.138 ± 0.026 |
| GTATAAAC | -0.0989 ± 0.041 |
| GAGGCGCA | 0.105 ± 0.017 |
| GGAGCCTA | -0.148 ± 0.07 |
| CATAAGAA | -0.0845 ± 0.019 |
| GCGAACCA | 0.082 ± 0.087 |
| CCACGCAG | -0.168 ± 0.0041 |
| ATGAAAGG | -0.0708 ± 0.048 |

| Sequence | PBM E-score of 8-mer |
| --- | --- |
| ATACCGAT | -0.2596 ± 0.00038 |
| TAAGAAGA | -0.158 ± 0.036 |
| AAAGATGC | -0.0825 ± 0.01 |
| AATTATAA | -0.0957 ± 0.0095 |
| TACCTTGA | 0.00793 ± 0.011 |
| CGACTCCC | -0.0166 ± 0.00058 |
| ACCATACT | -0.16 ± 0.051 |
| GGACACCC | 0.242 ± 0.037 |
| AAATGAGT | -0.00317 ± 0.1 |
| ACGAAAGT | 0.0225 ± 0.005 |
| GCAAGCGC | 0.0149 ± 0.012 |
| AACCAATC | -0.215 ± 0.044 |
| AAGCGAGC | 0.16 ± 0.02 |
| TGGACCCA | -0.164 ± 0.018 |
| ATACATAG | -0.253 ± 0.02 |
| CATGACAG | -0.036 ± 0.025 |
| ATAAAACC | -0.162 ± 0.071 |
| CTACGCGA | 0.000755 ± 0.04 |
| AACTTCAA | 0.0368 ± 0.066 |
| ATAAGAGA | -0.11 ± 0.014 |
| GTGAAATA | 0.22 ± 0.028 |
| CAGCTTAA | -0.0988 ± 0.043 |

| Sequence | PBM E-score of 8-mer |
| --- | --- |
| GAACCTGA | -0.0662 ± 0.027 |
| ACACGACT | 0.126 ± 0.028 |
| GGACAACA | 0.0292 ± 0.044 |
| ACCTTCGA | 0.126 ± 0.028 |
| CATCGCAA | 0.0368 ± 0.039 |
| AGATACAT | -0.213 ± 0.044 |
| TCACGGGA | 0.0985 ± 0.012 |
| TGCGCCCA | -0.142 ± 0.078 |
| TGACAAAA | 0.333 ± 0.022 |
| GGAAAGTA | -0.118 ± 0.036 |
| AACTGTGA | 0.361 ± 0.026 |
| CCCGTCAG | 0.102 ± 0.12 |
| ACCCCTCA | 0.0373 ± 0.049 |
| CTACCCCA | -0.116 ± 0.0095 |
| AGCAGCGG | -0.117 ± 0.045 |
| ACCGCTCT | -0.169 ± 0.058 |
| CTGATCTA | -0.329 ± 0.035 |
| GTGCTGTA | -0.0335 ± 0.024 |
| GAGACCGC | -0.074 ± 0.049 |
| CGCTTGTC | 0.138 ± 0.03 |
| CATGAATC | 0.0325 ± 0.041 |
| CCAGCATC | -0.121 ± 0.085 |

| Sequence | PBM E-score of 8-mer |
| --- | --- |
| AATCGTAA | -0.0687 ± 0.016 |
| TACCCGGA | 0.0435 ± 0.04 |
| CCGAGTCA | -0.0527 ± 0.13 |
| GATAAAAC | -0.0131 ± 0.087 |
| CCAATGGC | 0.0745 ± 0.041 |
| AGTCAGCC | -0.111 ± 0.0071 |
| AGGAGTGG | 0.00902 ± 0.039 |
| CACTAGGC | 0.155 ± 0.0034 |
| CACCAAAA | 0.115 ± 0.063 |
| CAATCATA | -0.102 ± 0.056 |
| TAAGGGCA | -0.13 ± 0.0082 |
| ATCGGTAG | -0.244 ± 0.035 |
| ACCAGGGC | -0.144 ± 0.08 |
| AACACTGC | 0.322 ± 0.021 |
| ACTACGGA | -0.1544 ± 0.00067 |
| ATTCAAGC | -0.0243 ± 0.046 |
| TCTGGTCA | -0.125 ± 0.047 |
| ATAAAGAA | -0.132 ± 0.043 |
| AAAAGGTA | -0.231 ± 0.12 |
| ACTCCGAA | -0.00434 ± 0.02 |
